Data taken from PubChem BioAssay AID1347073 (National Center for Advancing Translational Sciences (NCATS), 2019).
Among all 45,000 compounds or so, about 200 (0.44%) were called active. Inconclusive results (about 7%) are left out. The call rests on the fitted dose curve; in most records, active means well fitted activation curve with a large enough effect; inconclusive means small, poorly fitted or top-dose-only effect; inactive means no such curve, though single readings can be large or run the other way. The list shows a part of the results.

assay: qHTS of TDP-43 Inhibitors: NCGC Sytravon Library Screen; settings: yeast TDP-43 toxicity rescue, BacTiter-Glo growth, 24 h; series mostly up to 46.1 µM; growth rescue (activation): at the top concentration; further: 0% is about no effect; nearly all actives have a fitted effect of over 55% in size
Method in brief: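 TDP-43-expressing yeast, pregrown in raffinose, seeded at OD600 0.02 in galactose medium with compound for 24 hr at 30 deg C. Growth read by BacTiter-Glo luminescence, so rescue of toxicity appears as activation.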

Row | Compound | growth rescue (activation)
1 | O=C(CN1C(=O)NC(c2ccccc2)(c2ccccc2)C1=O)NCCc1ccc(F)cc1 | inactive: 10.7%
2 | COc1cc(/C=C(/C#N)C(=O)Nc2ccccc2)c(Br)cc1OCc1ccc(C(=O)O)cc1 | inactive: 9.33%
3 | Cc1onc(-c2ccccc2)c1-c1nc2ccccc2c(=O)o1 | inactive: 12.2%
4 | CC1CCN(C(=O)Cn2cnc3c2c(=O)n(C)c(=O)n3C)c2ccccc2S1 (stereo not drawn) | inactive: 3.88%
5 | COc1cccc(N2CCN(C(=O)CN(C)S(=O)(=O)c3ccc4c(c3)c(=O)n(C)c(=O)n4C)CC2)c1 | inactive: 0.426%
6 | CCc1nnc(NC(=O)COc2ccc3ccccc3c2)s1 | inactive: 14.7%
7 | COc1ccc(-n2nc(C(=O)NCC(=O)NCCCN3CC(C)CC(C)C3)c3ccccc3c2=O)cc1Cl (stereo not drawn) | inactive: -12%
8 | COc1cc(/C=C2\SC(=S)N(NC(=O)c3ccc(O)cc3)C2=O)ccc1O | inactive: -17.3%
9 | O=C1CSC(c2ccc(Cl)cc2)N1Nc1nc(N2CCOCC2)nc(N2CCOCC2)n1 (stereo not drawn) | inactive: 1.72%
10 | Cc1ccc(C(C(=O)NCc2ccccc2)N(C(=O)c2csnn2)C2CC2)cc1 (stereo not drawn) | inactive: 18.3%
11 | CCCCc1c(C)nc2c(OC)cccc2c1SCCC(=O)O | inactive: -20.2%
12 | O=C(COC(=O)c1cccc2ccccc12)NCCCc1ccccc1 | inactive: 9.25%
13 | OC[C@@H]1CN(Cc2ccc(-c3ccccc3)cc2)C[C@H](n2cnc3c(NCc4ccco4)ncnc32)O1 | inactive: 4.94%
14 | CC(C)OC(=O)CC1C(=O)NCCN1C(=S)NC(=O)c1ccc(F)cc1 (stereo not drawn) | inactive: -16.6%
15 | N#Cc1ccccc1OCC(=O)NC(=O)NCc1ccccc1 | inactive: 19%
16 | Cc1c(C(=O)NCCC2=CCCCC2)oc2ccc(S(=O)(=O)N3CCC4(CC3)OCCO4)cc12 | inactive: -9.61%
17 | Cc1csc(SCC(=O)Nc2nnc(C)s2)n1 | inactive: 21.5%
18 | COc1ccc(CCNC(=O)c2ccc3c(c2)NC(=O)C(C(C)C)N3)cc1OC (stereo not drawn) | inactive: 5.24%
19 | COc1ccccc1C(=O)Nc1ccc(S(=O)(=O)N2CCCCC2)cc1 | inactive: 13.8%
20 | CC(C)NS(=O)(=O)c1ccc(CCC(=O)N2CCCCC2)cc1 | inactive: 7.62%
21 | Cc1nc(SCCC(=O)O)c2cc(-c3ccccc3)sc2n1 | inactive: -2.16%
22 | COc1ccccc1N1CCN(CC(O)COc2ccc(C)c(C)c2)CC1 (stereo not drawn) | inactive: -13.4%

Row | Compound | growth rescue (activation)
23 | Cc1nn(-c2ccccc2)c(C)c1/C=N/Nc1nc2ccccc2[nH]1 | inactive: 12.4%
24 | CCCCC(NC(=O)Cc1c(C)c2cc3c(-c4ccccc4)coc3c(C)c2oc1=O)C(=O)O (stereo not drawn) | inactive: 17.6%
25 | COc1ccc(C2C(C#N)=C(C)NC(C)=C2C(=O)OC(C)C)c(OC)c1 (stereo not drawn) | inactive: -1.55%
26 | CCOc1ccc(-c2c(C(=O)N/N=C/c3ccccc3)nnn2-c2nonc2N)cc1 | inactive: -3.51%
27 | C=CCn1c(SCC(=O)c2ccc(F)cc2)nnc1-c1ccc2c(c1)OCO2 | inactive: 27.7%
28 | Cc1ccc(C(=O)NC(=S)Nc2ccc(NC(=O)c3cccc(Cl)c3)cc2)cc1 | inactive: 19.9%
29 | Cc1nc2cc(F)ccc2n1C1CCN(C(=O)c2ccc(F)cc2F)CC1 | inactive: 6.72%
30 | CC1=C(C(=O)NCc2ccccc2)C(c2cccs2)NC(=S)N1 (stereo not drawn) | inactive: 1.82%
31 | Cc1sc2nc(SCC(=O)Nc3ccc(Cl)c(C(=O)O)c3)[nH]c(=O)c2c1C | inactive: 4.59%
32 | CCC(C(=O)OCC(=O)N1C(C)CCCC1C)c1ccccc1 (stereo not drawn) | inactive: 4.11%
33 | CCC(C)SCC(=O)Nc1ccc(S(=O)(=O)N2CCOCC2)cc1OC (stereo not drawn) | inactive: 24.1%
34 | CC(C)=CCN1CCN(Cc2c(C)nn(C)c2Cl)CC1CCO (stereo not drawn) | inactive: 8.45%
35 | O=C(NCCNC(=O)c1cnccn1)c1cccc(Cl)c1 | inactive: 6.71%
36 | CCNC(=O)C1(C)CCN(C(=O)c2ccccc2OC)C1 (stereo not drawn) | inactive: -11.6%
37 | Cc1nn(CC(=O)NCCc2ccccc2Cl)c(=O)c2nn(-c3ccccc3)c(C)c12 | inactive: 0.115%
38 | COc1ccccc1Nc1ccc(S(=O)(=O)N2CCCCC2)cc1[N+](=O)[O-] | inactive: -9.41%
39 | O=C(NC1CCCCC1)c1cc(S(=O)(=O)N2CCOCC2)ccc1Cl | inactive: -21.9%
40 | O=C(COC(=O)C1C2CC3OC(=O)C1C3C2)Nc1cccc(Cl)c1 (stereo not drawn) | inactive: 5.75%
41 | CNc1cc(-c2cccc(OC)c2F)nc2ccnn12 | inactive: 13.2%
42 | COc1ccc(CN(C(=O)CO/N=C/c2ccccc2)c2ccccc2C(=O)O)cc1 | inactive: 0.289%
43 | O=C(CCS(=O)(=O)Cc1ccccc1)Nc1nncs1 | inactive: -17.8%
44 | COC(=O)c1ccc(CNC(=O)COC(=O)/C=C/c2ccc(O)c(OC)c2)cc1 | inactive: 28.2%

Row | Compound | growth rescue (activation)
45 | CCOC(=O)C(=O)N(C)c1c(CC)nc2c(OCCC3CCCCC3)cccn12 | inactive: -9.18%
46 | CCN(CC(=O)NCc1ccc(F)cc1)C(=O)c1ccc(COc2ccccc2)cc1 | inactive: 9.93%
47 | COc1ccccc1/C=N/NC(=O)c1ccc(=O)n(C)c1 | inactive: -7.23%
48 | CC(=O)N(/N=C/c1ccc(C)cc1)c1nc(CCl)cs1 | inactive: -16.7%
49 | O=C(Oc1ccc(Br)cc1)c1n[nH]c(=O)c2ccccc12 | inactive: 23.5%
50 | O=[N+]([O-])c1cc(Cl)ccc1NCCc1ccccn1 | inactive: 23.4%
51 | COc1ccc(NC(=O)c2cc(-c3cc(OC)c(OC)c(OC)c3)nc3ccccc23)c(OC)c1 | inactive: -17.4%
52 | COC(=O)C1=C(N)Oc2cc(C)n(Cc3cccnc3)c(=O)c2C1c1ccccc1OC (stereo not drawn) | inactive: 7.51%
53 | COc1ccc(-c2cc(C(=O)NCCN3CCOCC3)no2)cc1OC | inactive: 6.79%
54 | CN(C)c1nc(N(C)C)nc(N2CC(CCl)OC2=N)n1 (stereo not drawn) | inactive: 3.17%
55 | Cc1noc(C)c1CN1C(=O)c2cccc([N+](=O)[O-])c2C1=O | inactive: -7.27%
56 | Cc1cccc2cc(-c3nc4ccc(C(=O)O)cc4[nH]3)c(=O)oc12 | inactive: -8.08%
57 | O=C(CCNS(=O)(=O)c1cccc2nsnc12)NCc1ccccc1Cl | inactive: 5.91%
58 | CCOC(=O)c1[nH]c2ccc(OC)cc2c1NC(C)=O | inactive: -37.2%
59 | Cc1ccc(S(=O)(=O)N(C)C)cc1-n1c(SCC(=O)Nc2ccc(F)cc2Cl)nc2ccccc2c1=O | inactive: 2.36%
60 | N#C/C(=C\c1ccccc1[N+](=O)[O-])C(=O)NCc1ccccc1 | inactive: 1.49%
61 | O=C(COC(=O)c1n[nH]c2ccccc12)NCCc1ccccc1 | inactive: 0.995%
62 | O=C(c1ccco1)N1CCC(c2nc3c(nnn3Cc3c(Cl)cccc3Cl)c(=O)[nH]2)CC1 | inactive: 15.6%
63 | CCOc1cc(/C=C2\SC(=N)N(c3nonc3N)C2=O)ccc1OCC(N)=O | inactive: 15.9%
64 | Cc1ccc(NC(=O)C2CCCN(c3ncccn3)C2)cc1C (stereo not drawn) | inactive: 13.1%
65 | CCOC(=O)COc1ccc2c(=O)c(-c3ccccc3)coc2c1 | inactive: -4.93%
66 | CCCCCCCCCCSc1n[nH]c(N)n1 | inactive: -90.1%

Row | Compound | growth rescue (activation)
67 | CC(C)Cn1c(S(=O)(=O)O)nc2ccccc21 | inactive: 12.2%
68 | CCOC(=O)c1c(C)[nH]c(C(=O)NCCN2CCOCC2)c1C | inactive: 3.27%
69 | Cc1ccc(C(=O)c2ccc(N3CCN(C)CC3)c([N+](=O)[O-])c2)cc1 | inactive: 7.22%
70 | O=C(CC(C(=O)O)P(=O)(c1ccccc1)c1ccccc1)c1ccccc1 (stereo not drawn) | inactive: 0.146%
71 | CCOC(=O)C1CCCN(C(=O)c2ccc(C)c([N+](=O)[O-])c2)C1 (stereo not drawn) | inactive: 5.54%
72 | CC(C)OP(=O)(OC(C)C)C(Nc1ccccc1)c1cccc([N+](=O)[O-])c1 (stereo not drawn) | inactive: 5.37%
73 | C/C(=N\N1C(C)CCCC1C)c1ccccc1O (stereo not drawn) | inactive: 3.45%
74 | Cc1cc(NO)c(C(C)C)cc1N=O | inactive: 10%
75 | O=C(COC(=O)c1cc[n+]([O-])cc1)Nc1cccc(Cl)c1Cl | inactive: -6.99%
76 | CCCC(=O)Nc1ccc(NC(=S)NC(=O)c2ccccc2[N+](=O)[O-])cc1 | inactive: 23.5%
77 | Cc1cc(/C=C2\C(=N)N3N=C(C(C)C)SC3=NC2=O)c(C)n1-c1ccccc1 | inactive: -5.03%
78 | N#CCC(=O)Nc1ccc(C(=O)NNC(=S)NC2CCCCC2)cc1 | inactive: -8.06%
79 | COc1cc(CCC(=O)Nc2cccc(C(F)(F)F)c2)cc(OC)c1OC | inactive: -18.6%
80 | CC1=C/C(=C(/c2cc(C)c(O)c(Br)c2)c2ccccc2S(=O)(=O)O)C=C(Br)C1=O | inactive: -61.8%
81 | O=C(Nc1ccccc1)N(O)c1ccc(Cl)cc1 | inactive: 22.7%
82 | CCCNS(=O)(=O)c1ccc(OCC(=O)NCC2CCCO2)cc1 (stereo not drawn) | inactive: -9.33%
83 | COC(=O)C(C(=O)OC)C(c1ccccc1)C(C(=O)c1ccccc1)[N+](=O)[O-] (stereo not drawn) | inactive: 9.93%
84 | CC(=O)c1c(C)[nH]c(C(=O)Nc2cccc3ccccc23)c1C | inactive: 2.34%
85 | CS(=O)(=O)Cc1ccc(C(=O)N2CCCC2c2cccs2)cc1 (stereo not drawn) | inactive: -2.14%
86 | Cc1ccc(S(=O)(=O)NCC(=O)NNC(=O)c2ccc(Br)cc2)cc1C | inactive: -1.43%
87 | C/C(=N\N1CCN(c2ccc(Cl)cc2)CC1)c1cccs1 | inactive: 13.6%
88 | COc1ccc(/C=C/C(=O)OCC(=O)Nc2ccc(Cl)cn2)cc1 | inactive: -0.908%

Row | Compound | growth rescue (activation)
89 | CCOc1ccccc1/C=N/Nc1ccnc(=O)[nH]1 | inactive: 4.25%
90 | Cc1ccc(OCc2cc(C(=O)N(C)CCn3ccnc3C)no2)cc1C | inactive: 7.03%
91 | O=C(NCc1ccc2c(c1)OCO2)c1ccc(Br)o1 | inactive: 25.9%
92 | CCS(=O)(=O)c1ncc(Cl)c(C(=O)Nc2ccccc2OC)n1 | inactive: -3.51%
93 | CCOc1ccccc1N(CC(=O)NCc1ccccc1)C(=O)CCC(=O)Nc1cc(C)ccn1 | inactive: 9.27%
94 | Cc1cc(C(=O)OCC(=O)Nc2ccccc2)c(C)o1 | inactive: -2.56%
95 | COc1cc(CNC(=O)C2CC2)ccc1OCc1ccccc1 | inactive: -4.56%
96 | COc1ccccc1N1CCN(Cc2cc3c(cc2O)OCO3)CC1 | inactive: 0.565%
97 | O=C(CSc1ncnc2c1nnn2-c1ccc(F)cc1)NCc1ccco1 | inactive: -13.6%
98 | Cc1ccccc1Nc1ccc(S(=O)(=O)N2CCOCC2)cc1[N+](=O)[O-] | inactive: 6.04%
99 | Cc1c(F)cccc1NS(=O)(=O)c1ccc2c(c1)c(=O)n(C)c(=O)n2C | inactive: 0.529%
100 | CNC(=S)Nc1cc(C)ccc1OC(F)F | inactive: 4.72%
101 | COc1ccc(NC(=O)CN2CCC3(O)CCCCC3C2c2cc(OC)ccc2OC)cc1 (stereo not drawn) | inactive: 6.59%
102 | O=C(CSc1nncn1-c1ccccc1F)NC1CC1 | inactive: 5.1%
103 | CCOc1ccccc1N1CN(C2CCCCC2)CNC1=S | inactive: -6.4%
104 | O=C(COc1ccc(S(=O)(=O)Nc2ccccc2)cc1)NCc1ccncc1 | inactive: 10.9%
105 | Clc1cc(Br)ccc1OCCCNCc1ccccc1 | inactive: -6.52%
106 | O=C(COC(=O)/C=C/c1ccccc1)NC1CCCCCC1 | inactive: 24%
107 | N#C/C(=C/Nc1ccccc1)c1ccsc1 | inactive: 1.19%
108 | O=C(COC(=O)Cc1ccsc1)NC(c1ccccc1)c1ccccc1 | inactive: 17%
